The text below walks through data of the supplement of paper PMC4604168 (melanoma cell lines).

The other results are listed elsewhere or left out. Many values rest on one well or one pass, so single values are uncertain.
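Note: cell number obtained by counting DAPI-stained nuclei in high-throughput microscope images with image analysis software, screen run in 1,536-well plates.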

In the test the test system is UACC62. Description: cell count relative to DMSO control; melanoma cells; higher = more viable cells. The settings on record: library dose: low library concentration; 72 h.
With `O=C1NC(=O)/C(=C/c2ccc(-c3ccc(F)cc3O)o2)S1` + O=C(Oc1ccc([N+](=O)[O-])cc1)N1CCC(C(O)(c2ccc3c(c2)OCO3)c2ccc3c(c2)OCO3)CC1 [JZL184] (first compound 1 µM, partner dose 1 µM), the cell count stood at 106%.
Molecule `O=C(O)c1ccc2c(c1)nc(Nc1cccc(Cl)c1)c1ccncc12` + C[As](C)SC[C@H](NC(=O)CC[C@H](N)C(=O)O)C(=O)NCC(=O)O [Darinaparsin] (first compound 0.4 µM, partner dose 0.4 µM) yielded a cell count of 81.4%.
For `CN1CCN(c2ccc3nc(-c4c(N)c5c(F)cccc5[nH]c4=O)[nH]c3c2)CC1` [Dovitinib] + C/C(O)=C(\C#N)C(=O)Nc1cc(Br)ccc1Br [LFM-A13] (first compound 0.1 µM, partner dose 2 µM) the value was 78.9%; for `O=C(O)c1ccc2c(c1)nc(Nc1cccc(Cl)c1)c1ccncc12` + Cc1cc(SCc2sc(-c3ccc(C(F)(F)F)c(F)c3)nc2C)ccc1OCC(=O)O [GW0742] (first compound 0.4 µM, partner dose 2 µM), 91.2%.
As for `CN1CCN(c2ccc3nc(-c4c(N)c5c(F)cccc5[nH]c4=O)[nH]c3c2)CC1` [Dovitinib] + C[As](C)SC[C@H](NC(=O)CC[C@H](N)C(=O)O)C(=O)NCC(=O)O [Darinaparsin] (first compound 0.1 µM, partner dose 0.4 µM), the figure is 80.8%.
`Cc1cc(Nc2cc(N3CCN(C)CC3)nc(Sc3ccc(NC(=O)C4CC4)cc3)n2)n[nH]1` [Tozasertib] + N.N.[Cl][Pt][Cl] [cisplatin] (first compound 0.006 µM, partner dose 1.6 µM) registered a cell count of 106%.
